{"source": "the RNAGym collection of RNA variant scans (doi:10.1073/pnas.2313332121)", "parents": {"B1": {"name": "TPR 5TU (parent)", "chain": "GGAUCUUCUCGAUCUAACAAAAAAGACAAAUCUGCCACAAAGCUUGAGAGCAUCUUCGGAUGCAGAGGCGGCAGCCUUCGGUGGCGCGAUAGCGCCAACGUUCUCAACUAUGACACGCAAAACGCGUGCUCCGUUGAAUGGAGUUUAUCAUG"}}, "note": "Variants at the floor of the assay are shown more often than the library holds them.", "data": [{"variants_of": "B1", "assay": "polymerase ribozyme fitness, log enrichment relative to wild type (log ratio); higher = more active; in vitro selection for triplet polymerase activity", "how_it_was_run": "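After PCR construction and transcription, each subunit's mutant library from a heterodimeric triplet polymerase ribozyme was annealed with a biotinylated primer, the partner subunit and triplets. Incubation was frozen, at −7 °C, and extended constructs were gel-excised, bound to streptavidin beads and amplified by RT-PCR, in one selection round done in triplicate. Fitness is the logarithm of a genotype's enrichment divided by that of the wild type, from inverse-variance-weighted replicate averages of Illumina-sequenced inputs and outputs. The base of the logarithm is 2, and genotypes needed ≥10 input reads and ≥1 read per output.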", "values": [{"variant": "A89G A107U U134A U135A A142C", "polymerase ribozyme fitness (log ratio)": "≤ -4.2"}, {"variant": "C85G C114U", "polymerase ribozyme fitness (log ratio)": -3.49}, {"variant": "U90G A97G C114U U139G", "polymerase ribozyme fitness (log ratio)": "≤ -4.2"}, {"variant": "C85G U135A", "polymerase ribozyme fitness (log ratio)": -3.38}, {"variant": "C85G U135C", "polymerase ribozyme fitness (log ratio)": -3.66}, {"variant": "A89C C93G A150C", "polymerase ribozyme fitness (log ratio)": "≤ -4.2"}, {"variant": "C85G C99G C116G G136U", "polymerase ribozyme fitness (log ratio)": "≤ -4.2"}, {"variant": "C87U C99A C108A C114G", "polymerase ribozyme fitness (log ratio)": "≤ -4.2"}, {"variant": "C93G G94U C95A G128A", "polymerase ribozyme fitness (log ratio)": "≤ -4.2"}, {"variant": "C85U C96U A98G A150G", "polymerase ribozyme fitness (log ratio)": -2.21}, {"variant": "C85U A89G", "polymerase ribozyme fitness (log ratio)": -2.67}, {"variant": "U90G C99G A150U", "polymerase ribozyme fitness (log ratio)": "≤ -4.2"}, {"variant": "A91U C99U", "polymerase ribozyme fitness (log ratio)": "≤ -4.2"}, {"variant": "G86C U145C", "polymerase ribozyme fitness (log ratio)": -3.66}, {"variant": "A91C C95U C103G C116G", "polymerase ribozyme fitness (log ratio)": "≤ -4.2"}, {"variant": "A91C G136C G141U A150C", "polymerase ribozyme fitness (log ratio)": "≤ -4.2"}, {"variant": "G92A C105A A147U", "polymerase ribozyme fitness (log ratio)": -4.16}, {"variant": "C87U A91G C105G", "polymerase ribozyme fitness (log ratio)": -4.02}, {"variant": "C85U G152U", "polymerase ribozyme fitness (log ratio)": -3.73}, {"variant": "U90G A107U", "polymerase ribozyme fitness (log ratio)": "≤ -4.2"}, {"variant": "C87A A89C C95A", "polymerase ribozyme fitness (log ratio)": "≤ -4.2"}, {"variant": "G86C U104A", "polymerase ribozyme fitness (log ratio)": -2.46}, {"variant": "C85U G133U G143A", "polymerase ribozyme fitness (log ratio)": "≤ -4.2"}, {"variant": "C93U C99G", "polymerase ribozyme fitness (log ratio)": -1.97}, {"variant": "C93U U102G G117U U135A", "polymerase ribozyme fitness (log ratio)": "≤ -4.2"}, {"variant": "G86U C132A", "polymerase ribozyme fitness (log ratio)": "≤ -4.2"}, {"variant": "G86C A107G C125G", "polymerase ribozyme fitness (log ratio)": "≤ -4.2"}, {"variant": "C93G U102G", "polymerase ribozyme fitness (log ratio)": "≤ -4.2"}, {"variant": "C85U A91U G133U G143A", "polymerase ribozyme fitness (log ratio)": "≤ -4.2"}, {"variant": "G92C U104G", "polymerase ribozyme fitness (log ratio)": -1.85}, {"variant": "A91U C93A A107U C114U G126A G152A", "polymerase ribozyme fitness (log ratio)": "≤ -4.2"}, {"variant": "G86C U109G C118G", "polymerase ribozyme fitness (log ratio)": -3.5}, {"variant": "C87U A122G", "polymerase ribozyme fitness (log ratio)": -1.83}, {"variant": "A89G U102G A106U C131A", "polymerase ribozyme fitness (log ratio)": "≤ -4.2"}, {"variant": "C87A C105G", "polymerase ribozyme fitness (log ratio)": "≤ -4.2"}, {"variant": "U90C U127C", "polymerase ribozyme fitness (log ratio)": "≤ -4.2"}, {"variant": "G88C C108G", "polymerase ribozyme fitness (log ratio)": "≤ -4.2"}, {"variant": "C87G G128U", "polymerase ribozyme fitness (log ratio)": "≤ -4.2"}, {"variant": "C87G G128A", "polymerase ribozyme fitness (log ratio)": "≤ -4.2"}, {"variant": "G86C G124A U144A", "polymerase ribozyme fitness (log ratio)": -2.44}, {"variant": "C85G A147C", "polymerase ribozyme fitness (log ratio)": -1.67}, {"variant": "G86A C105U", "polymerase ribozyme fitness (log ratio)": -0.138}, {"variant": "C87A A107C", "polymerase ribozyme fitness (log ratio)": "≤ -4.2"}, {"variant": "C93G C103G C125A", "polymerase ribozyme fitness (log ratio)": "≤ -4.2"}, {"variant": "G86A A110U", "polymerase ribozyme fitness (log ratio)": "≤ -4.2"}, {"variant": "G92C U135G A142U", "polymerase ribozyme fitness (log ratio)": -4.1}, {"variant": "G92A U101C G143U", "polymerase ribozyme fitness (log ratio)": "≤ -4.2"}, {"variant": "G92U C116G U127G", "polymerase ribozyme fitness (log ratio)": "≤ -4.2"}, {"variant": "G86U G92C", "polymerase ribozyme fitness (log ratio)": -2.75}, {"variant": "C85U C116G U151G", "polymerase ribozyme fitness (log ratio)": "≤ -4.2"}, {"variant": "C93U A110C", "polymerase ribozyme fitness (log ratio)": "≤ -4.2"}, {"variant": "C93U A110U", "polymerase ribozyme fitness (log ratio)": -4.1}, {"variant": "A91C G100C C103G G143U", "polymerase ribozyme fitness (log ratio)": "≤ -4.2"}, {"variant": "A89C C105U", "polymerase ribozyme fitness (log ratio)": 0.174}, {"variant": "A91U C103G A110C G133C U145G", "polymerase ribozyme fitness (log ratio)": "≤ -4.2"}, {"variant": "C87A A106G G124U U146C", "polymerase ribozyme fitness (log ratio)": "≤ -4.2"}, {"variant": "A91G C93A U101C U148G", "polymerase ribozyme fitness (log ratio)": "≤ -4.2"}, {"variant": "U90G C132U", "polymerase ribozyme fitness (log ratio)": "≤ -4.2"}, {"variant": "C85G C116U U144C", "polymerase ribozyme fitness (log ratio)": -3.36}, {"variant": "G86U C87A C95A U104A", "polymerase ribozyme fitness (log ratio)": "≤ -4.2"}, {"variant": "C87U C125A C131U", "polymerase ribozyme fitness (log ratio)": 0.186}, {"variant": "A91G G94A", "polymerase ribozyme fitness (log ratio)": -3.47}, {"variant": "C85U U146G U148C", "polymerase ribozyme fitness (log ratio)": -2.24}, {"variant": "C85G G141C", "polymerase ribozyme fitness (log ratio)": -3.06}, {"variant": "G92A G141C", "polymerase ribozyme fitness (log ratio)": -3.71}, {"variant": "G92A G141A", "polymerase ribozyme fitness (log ratio)": -2.48}, {"variant": "G88A C96A C125U G126U", "polymerase ribozyme fitness (log ratio)": "≤ -4.2"}, {"variant": "C87G A115C U134C A150C", "polymerase ribozyme fitness (log ratio)": "≤ -4.2"}, {"variant": "C85G A119U", "polymerase ribozyme fitness (log ratio)": -3.69}, {"variant": "C85G A91C", "polymerase ribozyme fitness (log ratio)": "≤ -4.2"}, {"variant": "C93U C105U", "polymerase ribozyme fitness (log ratio)": -2.55}, {"variant": "C93U G94C G133A", "polymerase ribozyme fitness (log ratio)": "≤ -4.2"}, {"variant": "C85G U104G A119C G143U C149G", "polymerase ribozyme fitness (log ratio)": "≤ -4.2"}, {"variant": "C93A C95U U109G A119G C131A", "polymerase ribozyme fitness (log ratio)": "≤ -4.2"}, {"variant": "C87U A98G", "polymerase ribozyme fitness (log ratio)": -1.67}, {"variant": "G88C A97G C118G U145C C149G", "polymerase ribozyme fitness (log ratio)": "≤ -4.2"}, {"variant": "U90G C108U", "polymerase ribozyme fitness (log ratio)": "≤ -4.2"}, {"variant": "C85U A115G", "polymerase ribozyme fitness (log ratio)": -2.3}, {"variant": "A91U G128A U139C A150U", "polymerase ribozyme fitness (log ratio)": "≤ -4.2"}, {"variant": "G92A U101C C114A A137G", "polymerase ribozyme fitness (log ratio)": "≤ -4.2"}, {"variant": "C93U U102G U109C G140U U148G", "polymerase ribozyme fitness (log ratio)": "≤ -4.2"}, {"variant": "G92U U101G", "polymerase ribozyme fitness (log ratio)": 0.0893}, {"variant": "A89G G92C G152U", "polymerase ribozyme fitness (log ratio)": "≤ -4.2"}, {"variant": "C85G C125A C131A C149U", "polymerase ribozyme fitness (log ratio)": "≤ -4.2"}]}]}
